{"source": "PubChem BioAssay", "note": "The inconclusive results got no clear call from the source; some entries with a clear call stand among them for comparison. Calls of active or inactive are those of the source.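 How the source made its calls, unless noted: active means thallium flux slope beyond 3 SD from same-plate DMSO control mean in most replicates, usually higher, sometimes lower; inconclusive means repeat tests gave conflicting results; inactive means no significant difference from controls in most replicates.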"}
{"test_system": "not listed separately", "test": "compound effects on native HEK Tl+ uptake – HEK cells, counterscreen 1, counter-screen for KCC2 modulator project, confirmation (AID 1716;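 active means thallium flux rate significantly above the same plate's solvent-only control wells, beyond their mean plus 3 SD; inconclusive means the two replicate wells gave conflicting results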)", "conditions": "HEK293 parental cells, thallium flux FluoZin2, ouabain; at 10 µM; baseline-ratio fluorescence slope, 10–20 s after thallium"}
{"smiles": "O=C(COC(=O)c1cc([N+](=O)[O-])ccc1NCCO)c1ccccc1", "thallium flux rate (normalised fluorescence)": "inactive: 0.00753"}
{"smiles": "Cc1onc(C(=O)N2CCN(Cc3ccccc3)CC2)c1[N+](=O)[O-]", "thallium flux rate (normalised fluorescence)": "inactive: 0.00749"}
{"smiles": "COc1ccc(NC(=S)NCCCc2ccccc2)cc1", "thallium flux rate (normalised fluorescence)": "inactive: 0.00669"}
{"smiles": "Cc1ccc(COc2ccccc2-c2cc(C(=O)N/N=C/c3cccnc3)[nH]n2)cc1", "thallium flux rate (normalised fluorescence)": "inconclusive: 0.00291"}
{"smiles": "Cc1ccc(OC/C(O)=C(\\C#N)c2nc3ccccc3s2)cc1", "thallium flux rate (normalised fluorescence)": "inconclusive: 0.00821"}
{"smiles": "CCN(CCCNC(=O)COc1cc(=O)n(CC)c2ccccc12)c1ccccc1", "thallium flux rate (normalised fluorescence)": "active: 0.0063"}
{"smiles": "O=C(NC1CCCC1)c1ccccc1OCc1ccccc1", "thallium flux rate (normalised fluorescence)": "active: 0.00474"}
{"smiles": "CC(C(=O)N=c1sc2ccccc2n1C)N1C(=O)C2CC=CCC2C1=O", "note": "(centres undefined)", "thallium flux rate (normalised fluorescence)": "inactive: 0.00734"}
{"smiles": "O=C1c2oc3ccccc3c(=O)c2C(c2cccc(F)c2)N1CCCO", "note": "(centres undefined)", "thallium flux rate (normalised fluorescence)": "inconclusive: 0.00816"}
{"smiles": "O=C1c2ccccc2C(Nc2ccc(S(=O)(=O)N3CCCCC3)cc2)N1Cc1ccco1", "note": "(centres undefined)", "thallium flux rate (normalised fluorescence)": "active: 0.0062"}
{"smiles": "O=[N+]([O-])c1cccc(/C=N/NC2=NS(=O)(=O)c3ccccc32)c1", "thallium flux rate (normalised fluorescence)": "inactive: 0.00727"}
{"smiles": "O=C(O)CCc1cc(I)c(Oc2ccc(O)c(I)c2)c(I)c1", "thallium flux rate (normalised fluorescence)": "inactive: 0.00687"}
{"smiles": "Cc1cccc(-c2nc(CS(=O)CC(=O)N3CCc4ccccc4C3)c(C)o2)c1", "note": "(centres undefined)", "thallium flux rate (normalised fluorescence)": "inactive: 0.007"}
{"smiles": "Cn1c(NCCCO)nc2c1c(=O)n(Cc1ccccc1F)c(=O)n2C", "thallium flux rate (normalised fluorescence)": "inactive: 0.0071"}
{"smiles": "CC(=O)Nc1ccc2nc(NC(=O)c3cccs3)sc2c1", "thallium flux rate (normalised fluorescence)": "inactive: 0.00754"}
{"smiles": "CCN1C/C(=C/c2ccc(N3CCOCC3)cc2)C(=O)/C(=C/c2ccc(N3CCOCC3)cc2)C1", "thallium flux rate (normalised fluorescence)": "inconclusive: 0.00253"}
{"target": "Solute carrier family 12 member 5 (Homo sapiens) (UniProt Q9H2X9)", "sequence (Q9H2X9 whole entry, looked up)": "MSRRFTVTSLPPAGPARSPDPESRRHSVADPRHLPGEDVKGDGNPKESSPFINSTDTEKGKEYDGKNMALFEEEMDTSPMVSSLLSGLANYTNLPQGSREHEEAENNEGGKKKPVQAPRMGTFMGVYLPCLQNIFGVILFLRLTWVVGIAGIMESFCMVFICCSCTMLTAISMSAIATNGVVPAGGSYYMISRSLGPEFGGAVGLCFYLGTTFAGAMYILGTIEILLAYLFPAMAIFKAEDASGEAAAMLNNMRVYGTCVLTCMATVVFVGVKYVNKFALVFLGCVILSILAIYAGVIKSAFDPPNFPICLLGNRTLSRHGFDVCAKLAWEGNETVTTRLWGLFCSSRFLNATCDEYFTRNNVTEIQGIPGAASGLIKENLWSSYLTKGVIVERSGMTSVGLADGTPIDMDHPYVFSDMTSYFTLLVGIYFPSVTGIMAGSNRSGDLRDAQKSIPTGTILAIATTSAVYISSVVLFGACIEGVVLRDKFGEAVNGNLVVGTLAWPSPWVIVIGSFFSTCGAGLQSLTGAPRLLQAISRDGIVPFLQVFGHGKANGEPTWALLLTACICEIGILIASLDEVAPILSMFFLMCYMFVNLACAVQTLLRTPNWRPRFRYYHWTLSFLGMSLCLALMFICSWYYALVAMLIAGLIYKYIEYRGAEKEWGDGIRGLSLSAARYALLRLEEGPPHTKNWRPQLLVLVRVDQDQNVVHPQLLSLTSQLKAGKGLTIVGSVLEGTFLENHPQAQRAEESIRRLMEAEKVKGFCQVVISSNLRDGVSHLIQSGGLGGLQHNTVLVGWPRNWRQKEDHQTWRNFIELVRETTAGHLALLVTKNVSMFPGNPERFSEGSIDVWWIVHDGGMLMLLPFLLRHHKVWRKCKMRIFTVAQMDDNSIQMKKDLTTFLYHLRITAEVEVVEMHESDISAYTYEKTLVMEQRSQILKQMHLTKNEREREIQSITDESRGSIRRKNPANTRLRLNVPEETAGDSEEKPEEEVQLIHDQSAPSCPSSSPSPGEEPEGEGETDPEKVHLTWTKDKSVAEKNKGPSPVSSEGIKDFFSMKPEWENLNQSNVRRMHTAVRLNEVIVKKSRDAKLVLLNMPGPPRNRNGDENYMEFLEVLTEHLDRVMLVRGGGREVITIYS", "test": "modulation of KCC2 thallium flux in HEK cells – cell-based, ouabain, retest, confirmation (AID 1717);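 further: slope of initial-normalized fluorescence between seconds 10 and 20 after thallium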", "conditions": "HEK293-KCC2, thallium flux FluoZin2 fluorescence, at 10 µM, bidirectional: low = inhibitor, high = activator"}
{"smiles": "Cc1ccc(CN(C)C(=O)c2cc(COc3ccc(F)cc3Cl)on2)o1", "raw Tl+ flux slope (below DMSO = inhibition, above = activation)": "inconclusive: 0.0173"}
{"smiles": "O=C(Cn1nc2ccccc2n1)N/N=C/c1cc(Cl)cc([N+](=O)[O-])c1O", "raw Tl+ flux slope (below DMSO = inhibition, above = activation)": "inconclusive: 0.0165"}
{"smiles": "CC/C(Cc1ccccc1)=N\\NC(=O)c1cc([N+](=O)[O-])cc([N+](=O)[O-])c1", "raw Tl+ flux slope (below DMSO = inhibition, above = activation)": "active: 0.0454"}
{"smiles": "Cc1ccc(S(=O)(=O)N(C)c2ccc(C(=O)N3CCc4ccccc4C3)cc2)cc1", "raw Tl+ flux slope (below DMSO = inhibition, above = activation)": "active: 0.0126"}
{"smiles": "Cc1ccc(-c2csc3ncn(CC(=O)N4CCOCC4)c(=O)c23)cc1C", "raw Tl+ flux slope (below DMSO = inhibition, above = activation)": "inactive: 0.0211"}
{"smiles": "CSCCC(NC(=O)c1ccc([N+](=O)[O-])cc1Cl)C(=O)OCC(=O)NCCCc1ccccc1", "note": "(centres undefined)", "raw Tl+ flux slope (below DMSO = inhibition, above = activation)": "inconclusive: 0.0164"}
{"smiles": "O=[N+]([O-])c1cc(Br)c(O)c(/C=N/Nc2nnnn2-c2cccc3ccccc23)c1", "raw Tl+ flux slope (below DMSO = inhibition, above = activation)": "inconclusive: 0.0164"}
{"smiles": "O=C(NC(=S)Nc1ccc(CN2CCOCC2)cc1)c1ccc(-c2ccc(Br)cc2)o1", "raw Tl+ flux slope (below DMSO = inhibition, above = activation)": "inconclusive: 0.0218"}
{"smiles": "CC(C)CC(c1nnnn1Cc1cccs1)N1CCN(c2nc3ccccc3s2)CC1", "note": "(centres undefined)", "raw Tl+ flux slope (below DMSO = inhibition, above = activation)": "inconclusive: 0.0164"}
{"smiles": "O=C(COC(=O)c1cc([N+](=O)[O-])ccc1NCCO)c1ccccc1", "raw Tl+ flux slope (below DMSO = inhibition, above = activation)": "inconclusive: 0.0165"}
{"smiles": "COc1ccc(NC(=S)NCCCc2ccccc2)cc1", "raw Tl+ flux slope (below DMSO = inhibition, above = activation)": "inactive: 0.0147"}
{"smiles": "Cc1ccc(COc2ccccc2-c2cc(C(=O)N/N=C/c3cccnc3)[nH]n2)cc1", "raw Tl+ flux slope (below DMSO = inhibition, above = activation)": "active: 0.0119"}
{"smiles": "CC(C(=O)N=c1sc2ccccc2n1C)N1C(=O)C2CC=CCC2C1=O", "note": "(centres undefined)", "raw Tl+ flux slope (below DMSO = inhibition, above = activation)": "inconclusive: 0.0173"}
{"smiles": "O=[N+]([O-])c1cccc(/C=N/NC2=NS(=O)(=O)c3ccccc32)c1", "raw Tl+ flux slope (below DMSO = inhibition, above = activation)": "inactive: 0.02"}
{"smiles": "O=C(O)CCc1cc(I)c(Oc2ccc(O)c(I)c2)c(I)c1", "raw Tl+ flux slope (below DMSO = inhibition, above = activation)": "inconclusive: 0.0169"}
{"smiles": "Cc1cccc(-c2nc(CS(=O)CC(=O)N3CCc4ccccc4C3)c(C)o2)c1", "note": "(centres undefined)", "raw Tl+ flux slope (below DMSO = inhibition, above = activation)": "inconclusive: 0.0168"}
{"smiles": "Cn1c(NCCCO)nc2c1c(=O)n(Cc1ccccc1F)c(=O)n2C", "raw Tl+ flux slope (below DMSO = inhibition, above = activation)": "inactive: 0.0197"}
{"smiles": "CC(=O)Nc1ccc2nc(NC(=O)c3cccs3)sc2c1", "raw Tl+ flux slope (below DMSO = inhibition, above = activation)": "inactive: 0.0191"}
